# In the supplement of paper PMC9446081:
# Out of some 39,000 compounds screened, about 220 (0.56%) showed activity. The list shows a part of the results.
# Tested on: Escherichia coli K-12 BW25113
# Experiment: relative growth (OD600 normalised to plate interquartile mean) (fraction); higher = less growth inhibition, active = 0.2 or less
# Conditions: 50 µM; LB; incubation time: overnight (16-24 h)
# 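Further: static incubation at 37 °C against the wild-type strain, values averaged over two biological replicates.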
row,Compound,relative growth
1,Cc1ccc(S(=O)(=O)N(C)C[C@@H]2Oc3ccc(NC(=O)CCN4CCOCC4)cc3CC(=O)N([C@H](C)CO)C[C@H]2C)cc1,inactive: 0.993
2,C[C@H]1CN([C@@H](C)CO)S(=O)(=O)c2ccc(C#Cc3ccncc3)cc2O[C@@H]1CN(C)S(=O)(=O)c1ccccc1,inactive: 1.03
3,O=C(C[C@@H]1CC[C@H]2[C@@H](COC[C@@H](O)CN2C(=O)Nc2ccc(F)cc2)O1)NCCCN1CCOCC1,inactive: 0.98
4,C[C@@H]1CCCCO[C@H](CN(C)S(=O)(=O)c2ccccc2)[C@H](C)CN([C@@H](C)CO)C(=O)c2cc(NS(=O)(=O)c3ccc(Cl)cc3)ccc2O1,inactive: 1.01
5,COCC(=O)N(C)C[C@@H]1Oc2cc(C#CCN(C)C)ccc2S(=O)(=O)N([C@@H](C)CO)C[C@@H]1C,inactive: 1.02
6,Cc1noc(C)c1S(=O)(=O)N(C)C[C@H]1Oc2ccc(NC(=O)CCN3CCOCC3)cc2C(=O)N([C@H](C)CO)C[C@H]1C,inactive: 1.02
7,C[C@@H]1CN([C@H](C)CO)C(=O)Cc2cc(NC(=O)Cn3cnnn3)ccc2O[C@@H]1CN(C)Cc1ccncc1,inactive: 1.03
8,O=C(C[C@@H]1CC[C@@H]2[C@H](COC[C@H](O)CN2S(=O)(=O)c2ccc(Oc3ccccc3)cc2)O1)NC1CCC1,inactive: 1.01
9,C[C@@H]1CCCCO[C@@H](CN(C)C(=O)NC2CCCCC2)[C@@H](C)CN([C@H](C)CO)C(=O)c2cc(NC(=O)CCCCCC(=O)Nc3ccccc3N)ccc2O1,inactive: 0.985
10,C[C@H](CO)N1C[C@H](C)[C@@H](CN(C)C(=O)Nc2ccc3c(c2)OCO3)Oc2ccc(NC(=O)CCCN(C)C)cc2C1=O,inactive: 1
11,CC[N+](C)(CC)CCOC(=O)C(O)(c1ccccc1)C1CCCCC1.[Br-] (configuration not stated),inactive: 1.17
12,C[C@H]1CN([C@@H](C)CO)C(=O)c2cc(-c3ccncc3)cnc2O[C@@H]1CN(C)S(=O)(=O)c1ccc(F)cc1,inactive: 0.991
13,COCC(=O)Nc1ccc2c(c1)OC[C@@H](C)N(C(=O)c1ccccc1F)C[C@@H](C)[C@@H](OC)CN(C)C2=O,inactive: 0.986
14,C[C@@H]1CN([C@@H](C)CO)C(=O)Cc2cc(NC(=O)c3ccncc3)ccc2O[C@H]1CN(C)S(=O)(=O)c1cccs1,inactive: 1.01
15,C[C@@H]1CN([C@@H](C)CO)C(=O)c2cc(NS(=O)(=O)c3cn(C)cn3)ccc2O[C@@H]1CN(C)S(=O)(=O)c1ccccc1,inactive: 1.01
16,C[C@H]1CN([C@@H](C)CO)S(=O)(=O)c2ccc(Br)cc2O[C@H]1CN(C)C(=O)C1CCCCC1,inactive: 1
17,Cc1ccc(S(=O)(=O)Nc2ccc3c(c2)C(=O)N([C@@H](C)CO)C[C@@H](C)[C@@H](CN(C)C(=O)NC(C)C)O3)cc1,inactive: 0.995
18,C[C@H]1CN([C@@H](C)CO)C(=O)c2cc(C#CC3(O)CCCC3)cnc2O[C@H]1CN(C)C(=O)Cc1cccnc1,inactive: 1.04
19,C[C@@H]1CN([C@@H](C)CO)C(=O)c2c(c3ccccc3n2C)-c2ccccc2CO[C@H]1CN(C)C(=O)Nc1ccccc1C(F)(F)F,inactive: 1.01

row,Compound,relative growth
1,CC(C)NNC(=O)c1ccncc1,inactive: 0.98
2,C[C@H]1CN([C@@H](C)CO)C(=O)c2cccc(NC(=O)c3cnccn3)c2O[C@H]1CN(C)C(=O)Nc1ccc2c(c1)OCO2,inactive: 0.993
3,Cc1noc(C)c1S(=O)(=O)N(C)C[C@@H]1OCCCC[C@H](C)Oc2ccc(NC(=O)Nc3ccc(F)cc3)cc2C(=O)N([C@H](C)CO)C[C@@H]1C,inactive: 1
4,CO[C@@H]1CN(C)C(=O)c2cc(NS(=O)(=O)c3cn(C)cn3)ccc2OC[C@@H](C)N(Cc2cccc(F)c2)C[C@@H]1C,inactive: 1.02
5,CNCC(=O)O,inactive: 0.986
6,C[C@H](CO)N1C[C@H](C)[C@H](CN(C)S(=O)(=O)c2ccccc2)Oc2ccc(NC(=O)Cn3cnnn3)cc2CC1=O,inactive: 0.985
7,COc1cccc2ccc(Cl)nc12,inactive: 0.995
8,C[C@H]1CN([C@@H](C)CO)C(=O)c2cccc(NC(=O)NC3CCCCC3)c2O[C@H]1CN(C)Cc1ccc(C(F)(F)F)cc1,inactive: 0.985
9,Cc1n[nH]c(C)c1CC(=O)O,inactive: 0.991
10,C[C@@H]1CN([C@H](C)CO)C(=O)c2cccc(NS(=O)(=O)c3cccs3)c2O[C@@H]1CN(C)Cc1ccc(Oc2ccccc2)cc1,inactive: 1.03
11,C/C=C(/C)C(=O)O[C@H]1[C@@H](OC(C)=O)[C@@]2(CO)[C@@H](O)C[C@@]3(C)C(=CC[C@H]4[C@@]5(C)CC[C@@H](O[C@H]6O[C@H](C(=O)O)[C@@H](O[C@H]7O[C@@H](CO)[C@@H](O)[C@@H](O)[C@@H]7O)[C@@H](O)[C@@H]6O[C@H]6O[C@@H](CO)[C@@H](O)[C@@H](O)[C@@H]6O)[C@@](C)(CO)[C@@H]5CC[C@]43C)[C@@H]2CC1(C)C,inactive: 0.94
12,C[C@@]1(O)[C@H](O)[C@@H](CO)O[C@H]1n1ccc(N)nc1=O,inactive: 1.01
13,C[C@H]1CN([C@@H](C)CO)C(=O)c2cccc(NC(=O)NC3CCCCC3)c2O[C@@H]1CN(C)Cc1ccc(C(F)(F)F)cc1,inactive: 0.846
14,C[C@@H]1CCCCO[C@H](CN(C)C(=O)Nc2ccc(F)cc2)[C@H](C)CN([C@H](C)CO)C(=O)c2cc(NC(=O)Nc3ccc(C(F)(F)F)cc3)ccc2O1,inactive: 0.991
15,C[C@@H]1CN([C@@H](C)CO)C(=O)c2cc(NC(=O)Cn3cnnn3)ccc2O[C@@H]1CN(C)Cc1ccc(C(F)(F)F)cc1,inactive: 1.06
16,C[C@H](CO)N1C[C@H](C)[C@H](CN(C)C(=O)NC2CCCCC2)Oc2c(NS(=O)(=O)c3cn(C)cn3)cccc2C1=O,inactive: 0.997
17,C[C@@H]1CCCCO[C@@H](CN(C)Cc2ccc(C(=O)Nc3ccccc3N)cc2)[C@@H](C)CN([C@H](C)CO)C(=O)c2cc(NC(=O)c3ccccc3)ccc2O1,inactive: 1
18,C/C=C/c1cnc2c(c1)C(=O)N([C@@H](C)CO)C[C@H](C)[C@H](CN(C)S(=O)(=O)c1ccc(OC)cc1)O2,inactive: 0.99
19,Cc1noc(C)c1NC(=O)N(C)C[C@@H]1OCCCC[C@@H](C)Oc2ccc(NC(=O)Nc3ccc(F)cc3)cc2C(=O)N([C@@H](C)CO)C[C@H]1C,inactive: 0.982

row,Compound,relative growth
1,C[C@@H]1CCCCO[C@H](CN(C)C(=O)Nc2ccc(F)cc2)[C@H](C)CN([C@@H](C)CO)C(=O)c2cc(NC(=O)Nc3ccccc3)ccc2O1,inactive: 1.03
2,C[C@@H]1CN([C@H](C)CO)C(=O)Cc2cc(NC(=O)C3CC3)ccc2O[C@@H]1CN(C)C(=O)Nc1ccc(F)cc1,inactive: 1.03
3,C[C@H]1CN([C@@H](C)CO)C(=O)CCCn2nncc2CO[C@@H]1CN(C)S(=O)(=O)c1ccc(Oc2ccccc2)nc1,inactive: 0.997
4,O=C(C[C@H]1CC[C@@H]2[C@H](COC[C@@H](O)CN2S(=O)(=O)c2ccccc2)O1)N1CCOCC1,inactive: 0.968
5,C[C@H]1CCCCO[C@@H](CN(C)S(=O)(=O)c2ccc(F)cc2)[C@@H](C)CN([C@@H](C)CO)C(=O)c2cc(NC(=O)C3CCCCC3)ccc2O1,inactive: 1.01
6,CO[C@@H]1CN(C)C(=O)c2ccc(NC(=O)c3nc4ccccc4s3)cc2OC[C@@H](C)N(Cc2ccccc2)C[C@H]1C,inactive: 1.01
7,COc1ccc(COCC23Oc4ccccc4[C@H]([C@H]2COC(=O)NCCCCCC(=O)NO)n2c(c4c(c(C(C)=O)c2=O)C(=O)N(C)C4=O)N3C)cc1,inactive: 0.996
8,C=CCOC(=O)[C@@H]1[C@H]2C(=O)O[C@H](c3ccccc3)[C@H](c3ccccc3)N2[C@H](c2ccc(OCCOC(=O)[C@H]3C[C@H]4C(=O)N[C@@H](Cc5ccccc5)C(=O)N4[C@H]3c3ccc(O)cc3)cc2)[C@@]12C(=O)Nc1ccc(I)cc12,inactive: 1.01
9,C[C@@H]1CN([C@H](C)CO)S(=O)(=O)c2ccc(C#Cc3ccccc3)cc2O[C@H]1CN(C)C(=O)c1ccccn1,inactive: 1.02
10,O=C([C@H]1[C@H](CO)[C@H]2Cn3c(cccc3=O)[C@@H]1N2CC1CCCC1)N1CCOCC1,inactive: 1.03
11,O=C(C[C@@H]1C=C[C@H](NC(=O)c2cnccn2)[C@@H](CO)O1)NCc1ccccc1F,inactive: 1
12,O=c1[nH]nc(N2CCOCC2)c(=O)[nH]1,inactive: 0.904
13,COc1ccc(S(=O)(=O)Nc2ccc3c(c2)C(=O)N([C@@H](C)CO)C[C@H](C)[C@@H](CN(C)Cc2ccc4c(c2)OCO4)OCCCC[C@@H](C)O3)cc1,inactive: 0.987
14,C[C@H]1CN([C@@H](C)CO)C(=O)Cc2cc(NC(=O)C3CC3)ccc2O[C@H]1CN(C)C(=O)NC1CCCCC1,inactive: 1.01
15,C[C@H](CO)N1C[C@H](C)[C@@H](CN(C)C(=O)CCC(F)(F)F)OCCCC[C@H](C)Oc2ccc(NC(=O)Cc3ccccc3)cc2C1=O,inactive: 1.02
16,CC(=O)N=c1sc(S(N)(=O)=O)nn1C,inactive: 0.974
17,C[C@@H]1CN([C@H](C)CO)S(=O)(=O)c2ccc(C#CC3(O)CCCC3)cc2O[C@H]1CN(C)C(=O)c1ccncc1,inactive: 1.01
18,COc1cccc(-c2ccc3c(c2)O[C@H](CN(C)Cc2cncnc2)[C@@H](C)CN([C@H](C)CO)S3(=O)=O)c1,inactive: 1.01
19,C[C@@H]1CN([C@@H](C)CO)C(=O)c2cc(NC(=O)CCC(F)(F)F)ccc2O[C@@H](C)CCCCO[C@H]1CN(C)C(=O)C1CCCCC1,inactive: 0.964
